Results reported in the RNAGym collection of RNA variant scans (doi:10.7554/elife.90254).
Read counts are not given, so values of variants with three or more changes are uncertain.

B1: LINE1-mini (parent)
chain: GGCAGAGCUCAACACAGCGUGGCAAAGUGGCUGUGGCUAGACUGCC

Variants of: B1
Experiment: self-cleavage, relative activity (ratio to wild type); higher = more cleavage; in vitro, sequencing; the parent is a self-cleaving ribozyme
G1C U9G A14C showed a self-cleavage of 0.02.
Variant G1C U9G G40U has a self-cleavage of 0.
Variant G1C U9G G44U has a self-cleavage of 0.01.
In the case of G1C U20A G21U G44C, the self-cleavage is reported as 0.05.
In the case of G1C U20A G33U G44U C46A, the self-cleavage is reported as 0.
G1C U20C C23A gave a self-cleavage of 0.06.
G1C U20C C37U A41G showed a self-cleavage of 0.01.
Variant G1C U20G A25U has a self-cleavage of 0.08.
Work on G1C U20G A25U U38G yielded a self-cleavage of 0.
For G1C U20G G30A G36U, the self-cleavage was 0.
Work on G1C U28A U34A yielded a self-cleavage of 0.02.
In the case of G1C U28C C46G, the self-cleavage is reported as 0.49.
Work on G1C U28C U38G G40A yielded a self-cleavage of 0.01.
For G1C U28G C45G, the self-cleavage was 0.06.
Variant G1C U28G C46A has a self-cleavage of 0.06.
For G1C U32A G33C C42G, the self-cleavage was 0.02.
Work on G1C U32A U38A G44A yielded a self-cleavage of 0.02.
G1C U32C U43G showed a self-cleavage of 0.
Work on G1C U32G G33A G35U G44U yielded a self-cleavage of 0.01.
Work on G1C U34A A41C C42U yielded a self-cleavage of 0.01.
With G1C U34C G40U U43G C45A the self-cleavage was 0.
G1C U43G C45U showed a self-cleavage of 0.01.
For G1U A4C A6U G22U G29C, the self-cleavage was 0.06.
Variant G1U A4C A11C U28G has a self-cleavage of 0.01.
Variant G1U A4C A11G C15U has a self-cleavage of 0.03.
With G1U A4C A12C C13A A16U C18G U43A G44U the self-cleavage was 0.01.
Variant G1U A4C G7A G19A U28A U43C has a self-cleavage of 0.14.
G1U A4C U20A A24C U28A A39G gave a self-cleavage of 0.
G1U A4G A11C G36A C46U showed a self-cleavage of 0.03.
For G1U A4G A12U C15A C37A C42G, the self-cleavage was 0.03.
G1U A4G A16C showed a self-cleavage of 0.04.
Variant G1U A4G A26C G27U has a self-cleavage of 0.02.
G1U A4G C10G C15G gave a self-cleavage of 0.
With G1U A4G C13U C45U the self-cleavage was 0.12.
For G1U A4G C18U, the self-cleavage was 0.26.
For G1U A4G C37A, the self-cleavage was 0.17.
G1U A4G C46A gave a self-cleavage of 0.12.
In the case of G1U A4G G7C C31A G35C, the self-cleavage is reported as 0.09.
For G1U A4G G22U C31A, the self-cleavage was 0.13.
For G1U A4G G30C C46A, the self-cleavage was 0.13.
For G1U A4U A16G G21A U34G C45G C46A, the self-cleavage was 0.01.
Work on G1U A4U C10U A11U A12U U28A G30A G33U yielded a self-cleavage of 0.01.
With G1U A4U G5C C10A A14C the self-cleavage was 0.03.
With G1U A4U G21U the self-cleavage was 0.09.
Variant G1U A6C A11G G27U G36U C37A A39C G40U has a self-cleavage of 0.
G1U A6C C8U gave a self-cleavage of 0.15.
Work on G1U A6C C10A A11G C13G G29U yielded a self-cleavage of 0.01.
Work on G1U A6C C31U G44A yielded a self-cleavage of 0.02.
Variant G1U A6C C37U G40C has a self-cleavage of 0.3.
In the case of G1U A6C G17U U28A, the self-cleavage is reported as 0.02.
With G1U A6G A11C the self-cleavage was 0.03.
For G1U A6G A11U C18A G44U, the self-cleavage was 0.02.
In the case of G1U A6G A11U C23U A25C, the self-cleavage is reported as 0.
Work on G1U A6G A25U G40U yielded a self-cleavage of 0.19.
In the case of G1U A6G A41G, the self-cleavage is reported as 0.07.
G1U A6G C10A G36C G40A showed a self-cleavage of 0.01.
Variant G1U A6G C15U G17C has a self-cleavage of 0.03.
With G1U A6G C18G U34G the self-cleavage was 0.01.
Work on G1U A6G C18U yielded a self-cleavage of 0.
With G1U A6G G7A A39C the self-cleavage was 0.09.
G1U A6G G7A C15U C31U C42G gave a self-cleavage of 0.01.
With G1U A6G G7C A12G the self-cleavage was 0.
In the case of G1U A6G G7U C13G G21C G22A C31A, the self-cleavage is reported as 0.03.
G1U A6G G19U C31G G40A gave a self-cleavage of 0.01.
Variant G1U A6G G27U G35C has a self-cleavage of 0.06.
Work on G1U A6G U9G G22U yielded a self-cleavage of 0.09.
In the case of G1U A6U A12G, the self-cleavage is reported as 0.04.
In the case of G1U A6U C8A G30C U32A, the self-cleavage is reported as 0.04.
G1U A6U C8U G17C A25G gave a self-cleavage of 0.05.
For G1U A6U C18G C31A G44A, the self-cleavage was 0.03.
G1U A6U C18U gave a self-cleavage of 0.08.
In the case of G1U A6U C23G U28G G33C, the self-cleavage is reported as 0.04.
Work on G1U A6U G33C yielded a self-cleavage of 0.13.
With G1U A6U G35U the self-cleavage was 0.08.
G1U A6U U9A gave a self-cleavage of 0.05.
In the case of G1U A11C A12C G21C C46A, the self-cleavage is reported as 0.
G1U A11C A25U G40A showed a self-cleavage of 0.
In the case of G1U A11C C13A U32C, the self-cleavage is reported as 0.
G1U A11C C13U A16C gave a self-cleavage of 0.01.
G1U A11C C18U G29U C37G gave a self-cleavage of 0.
G1U A11C G29U G30A showed a self-cleavage of 0.01.
G1U A11C G30U showed a self-cleavage of 0.03.
In the case of G1U A11G A25C, the self-cleavage is reported as 0.01.
Work on G1U A11G C31U yielded a self-cleavage of 0.02.
For G1U A11G G17A U32A C42G, the self-cleavage was 0.01.
Variant G1U A11G U43A C46G has a self-cleavage of 0.02.
With G1U A11U G22A C23G the self-cleavage was 0.04.
G1U A11U G35A G40U gave a self-cleavage of 0.
In the case of G1U A11U U20C, the self-cleavage is reported as 0.03.
For G1U A12C A16U G21A A24G G44C, the self-cleavage was 0.02.
Variant G1U A12C A24G G33C has a self-cleavage of 0.
G1U A12C A39C C42U gave a self-cleavage of 0.01.
G1U A12C C13A C46G showed a self-cleavage of 0.04.
With G1U A12C G21C the self-cleavage was 0.01.
Variant G1U A12C G29A G33U U34G G44A has a self-cleavage of 0.01.
With G1U A12C U43G the self-cleavage was 0.02.
For G1U A12G A16U, the self-cleavage was 0.02.
In the case of G1U A12G C15A A25G G35A, the self-cleavage is reported as 0.01.
With G1U A12G C23G the self-cleavage was 0.03.
G1U A12G G22C showed a self-cleavage of 0.02.
G1U A12G G40A C45G showed a self-cleavage of 0.02.
Work on G1U A12G U20A G22C yielded a self-cleavage of 0.02.
G1U A12G U20A U38A gave a self-cleavage of 0.02.
In the case of G1U A12G U28C U34G U38G, the self-cleavage is reported as 0.
In the case of G1U A12U A14G A26G, the self-cleavage is reported as 0.17.
G1U A12U C15A A25C C31G showed a self-cleavage of 0.04.
With G1U A12U C37A A39U the self-cleavage was 0.08.
In the case of G1U A12U G17U A26C G27C G33C, the self-cleavage is reported as 0.03.
In the case of G1U A14C C31G, the self-cleavage is reported as 0.02.
Variant G1U A14C G30A G40U has a self-cleavage of 0.01.
G1U A14C U38A A39C gave a self-cleavage of 0.01.
For G1U A14G A26C C45A, the self-cleavage was 0.09.
Work on G1U A14G A26G G30A yielded a self-cleavage of 0.04.
Work on G1U A14G C15A C18G A25C yielded a self-cleavage of 0.02.
For G1U A14G C18A G27A, the self-cleavage was 0.
Variant G1U A14G C23U has a self-cleavage of 0.14.
In the case of G1U A14G G17C C23U C46U, the self-cleavage is reported as 0.15.
G1U A14G G21C G33C U38A gave a self-cleavage of 0.01.
Variant G1U A14G G35A has a self-cleavage of 0.04.
For G1U A14U A24C, the self-cleavage was 0.07.
Work on G1U A14U C15A G21C G36U yielded a self-cleavage of 0.01.
With G1U A14U C15U C18G G30U the self-cleavage was 0.04.
G1U A14U C18A showed a self-cleavage of 0.11.
Variant G1U A14U C42A has a self-cleavage of 0.06.
In the case of G1U A14U G17A C31G, the self-cleavage is reported as 0.01.
G1U A14U G17C U20G G30A gave a self-cleavage of 0.
G1U A14U G22U A26U C37U U38C A39C gave a self-cleavage of 0.47.
Variant G1U A14U G40A C46A has a self-cleavage of 0.03.
Variant G1U A16C C23U C46A has a self-cleavage of 0.02.
With G1U A16C G44C the self-cleavage was 0.05.
For G1U A16C U32G, the self-cleavage was 0.24.
For G1U A16G A24U C31U G40A, the self-cleavage was 0.01.
Variant G1U A16G G36A C46G has a self-cleavage of 0.02.
Variant G1U A16G G40U has a self-cleavage of 0.04.
With G1U A16G U38A the self-cleavage was 0.11.
With G1U A16U A24G C46A the self-cleavage was 0.02.
G1U A16U G17C G22A A25G U32A showed a self-cleavage of 0.01.
With G1U A16U G33A the self-cleavage was 0.03.
Variant G1U A16U U34G C37A has a self-cleavage of 0.02.
For G1U A24C A41G G44A, the self-cleavage was 0.03.
G1U A24C G30C G35C G44U gave a self-cleavage of 0.04.
In the case of G1U A24C G33A, the self-cleavage is reported as 0.05.
Work on G1U A24C U34G A41C C42U C45U yielded a self-cleavage of 0.03.
For G1U A24C U34G G40U, the self-cleavage was 0.02.
For G1U A24G A26G G33A, the self-cleavage was 0.01.
Work on G1U A24G C37A yielded a self-cleavage of 0.1.
Variant G1U A24G C37U C45U has a self-cleavage of 0.
Variant G1U A24G C45A has a self-cleavage of 0.15.
Work on G1U A24G G27U yielded a self-cleavage of 0.17.
Variant G1U A24G U43A C45A C46U has a self-cleavage of 0.01.
Work on G1U A24U C42U yielded a self-cleavage of 0.
With G1U A24U G27C the self-cleavage was 0.27.
With G1U A24U G27U the self-cleavage was 0.32.
Variant G1U A24U G29U has a self-cleavage of 0.81.
With G1U A24U G30A the self-cleavage was 0.09.
G1U A24U G33A G44C showed a self-cleavage of 0.05.
Variant G1U A24U U28C has a self-cleavage of 0.2.
For G1U A25C C31A, the self-cleavage was 0.03.
Work on G1U A25C G33A C37A G44A yielded a self-cleavage of 0.02.
G1U A25C G40C showed a self-cleavage of 0.07.
With G1U A25G U34C G36C the self-cleavage was 0.
In the case of G1U A25U C45G, the self-cleavage is reported as 0.4.
G1U A26C C37A gave a self-cleavage of 0.04.
With G1U A26C C37G C46A the self-cleavage was 0.04.
Variant G1U A26C G29C has a self-cleavage of 0.45.
Work on G1U A26U G33U yielded a self-cleavage of 0.12.
Work on G1U A26U U34C yielded a self-cleavage of 0.02.
